The text below walks through data of ChEMBL document CHEMBL4888484, “Replenishing the malaria drug discovery pipeline: Screening and hit evaluation of the MMV Hit Generation Library 1 (HGL1) against asexual blood stage Plasmodium falciparum ,using a nano luciferase reporter read-out” (2022).

The campaign covered roughly 4,800 compounds. About 410 (8.5%) showed an effect of 50% or more. The list shows a part of the results.

The assay has as its system Plasmodium falciparum. Nature of the assay: Confirmatory screen in NF54 pLDH assay, in single point, at 2uM, 72h. Format: functional, Erythrocyte. Conditions: timepoint 72 hour.
Regarding `OC1CCC(Nc2cncc(-n3cccn3)n2)CC1` (centres undefined), the “% Inhibition” value is listed as 0%. `O=C(Nc1ccccc1-n1ccnc1)c1cnccn1`: the “% Inhibition” value is -7%. As to `Cc1ccc(/N=C(\N)C(Cl)(Cl)Cl)c(C)c1`, the “% Inhibition” value is on record as -2%. `COc1ccc(-c2cn3cc(C)nc3n2C)cc1`: the “% Inhibition” value worked out at 0%. Under `c1ccc(C2CCC(N3CCN(Cc4ccco4)CC3)CC2)cc1` (centres undefined) stands 6%. On to `O=C(CCC(=O)N1CCCCCC1)NCc1cccs1`, for which the “% Inhibition” value stood at 3%. `Cc1ccc(/C=C(\C(=O)NC[C@H]2CCCO2)n2ccccc2=O)cc1`: the “% Inhibition” value was 12%. Take `Cc1ccc(S(=O)(=O)N2CC(C)N(C(=O)N3CCOCC3)C2C)cc1` (centres undefined): the “% Inhibition” value amounted to 14%. Turning to `CCn1c(C)c(C)c2cc(C(=O)Nc3cccc(S(=O)(=O)N4CCOCC4)c3)ccc21`, the “% Inhibition” value is recorded as 4%.

For the compound `C[C@H](NC(=O)c1cocn1)c1ccccc1NC(=O)c1cocn1`, the “% Inhibition” value is recorded as -7%. Under `CCC(C)(CC)[C@@](O)(C#CC[N+]1(Cc2ccccc2)CCCCC1)c1ccccc1` stands 22%; under `COc1cc(CNCCc2ccccc2F)ccc1OCc1nnnn1-c1ccc(C)cc1`, 11%; under `Cc1ccc(Cn2cnc(NC(=O)CCn3c(=O)cc(C(F)F)c4cn(C)nc43)n2)cc1`, 1%. As to `CCCN(Cc1c(C)nn(-c2ccccc2)c1N1CCN(CC)CC1)S(=O)(=O)c1ccc(C)cc1`, the “% Inhibition” value is listed as -27%.

As for `Cc1ccc(-c2cc3c(N4CCCN(C)CC4)nccn3n2)c(C)c1`, the “% Inhibition” value stood at 14%.

Turning to `COc1ccc(S(=O)(=O)N2CCN(Cc3noc(CCC(=O)N(C)Cc4ccccc4)n3)CC2)cc1`, the “% Inhibition” value was -3%.

For `CN(Cc1ccccc1)C(=O)C1CC=CCC1C(=O)Nc1ncc(-c2ccc3c(c2)OCO3)n1C` (centres undefined), the “% Inhibition” value is given as 6%. With `O=C(NCCN1CCCC1)c1ccc2nc(-c3ccc(Cl)cc3)cn2c1`, the “% Inhibition” value stood at 70%.

In the case of `CCNC(=O)C(=O)NCc1ccc(Cl)cc1`, the “% Inhibition” value amounted to 12%. `NC(=O)c1ccccc1NC(=O)C1CCN(c2cc(C3CC3)ncn2)CC1`: the “% Inhibition” value worked out at 2%. Under `CNC(=O)c1cc(NS(=O)(=O)N2CCCCCC2)ccc1F` stands -8%; under `CCN1CCN(c2cccc(NC(=O)c3cc(F)cc4c(=O)c5cc(F)ccc5[nH]c34)c2)CC1`, 96%; under `COc1ccccc1C(=O)NC1=C(C)Nc2ncnn2[C@H]1c1c[nH]c2ccccc12`, -5%. In the case of `Cc1noc([C@H](C)S(=O)(=O)Cc2cc(C)on2)n1` it was 9%; in that of `CN(CCCNC(=O)Cc1n[nH]c(=O)c2ccccc12)Cc1ccccc1`, 9%; in that of `CCS(=O)(=O)c1cccc(N[C@@H](C)COC)c1`, 1%. Take `CC1CCC2(CC1)N=C(c1ccccc1)C(=O)N2CC(=O)N[C@H]1CCc2ccccc21` (some centres undefined): the “% Inhibition” value is listed as -4%. `C[C@@H]1NC(=O)N(C2CCCN(Cc3cccc(C(F)(F)F)c3)C2=O)C1=O` (some centres undefined): the “% Inhibition” value is reported as -11%. Consider `C[C@@H]1Oc2ccc(-c3csc(NC(=O)c4ccccc4Cl)n3)cc2N(C)C1=O`, for which the “% Inhibition” value came out at 12%.

`C[C@H](NC(=O)c1cc(F)cc(F)c1)c1ccccc1NC(=O)c1cc(F)cc(F)c1`: the “% Inhibition” value was 1%. Under `O=C(CN1CCCCC1=O)NCCc1c[nH]c2ccccc12` stands -15%. Take `Cn1n[n+](CCCCC(Cl)(Cl)Cl)c2ccccc21`: the “% Inhibition” value worked out at 52%. Regarding `CN(C)/C=C/c1cc(C#N)c(C#N)cc1Br`, the “% Inhibition” value is on record as 6%. In the case of `c1cc(-c2nc3cc4ccccc4cc3[nH]2)nc(-c2nc3cc4ccccc4cc3[nH]2)c1`, the “% Inhibition” value is reported as 97%. As for `COc1cccc(CCc2ccccc2OC[C@H](CN(C)C)OC(=O)CCC(=O)O)c1`, the “% Inhibition” value is -5%. For `COc1cc(C(c2c(C)n(C)n(-c3ccccc3)c2=O)c2c(C)n(C)n(-c3ccccc3)c2=O)c(Br)c(Br)c1OCc1ccccc1`, the “% Inhibition” value is 5%. Take `Cc1nn(-c2ncc(C(F)(F)F)cc2Cl)c(=O)n1-c1ccc(OCc2ccccc2)cc1`: the “% Inhibition” value was -12%.

Turning to `COc1nc(NC[C@H]2CCCN2C(C)C)ncc1F`, the “% Inhibition” value is 83%. In the case of `CCn1nccc1C(=O)NC1CCN(c2nnc3ccccn23)CC1` it was -7%; in that of `CCCN(CCO)C(=O)Nc1ccn(Cc2cn3ccccc3n2)n1`, 5%. As for `O=C(NC1CCS(=O)(=O)C1)C1CC=CCC1` (centres undefined), the “% Inhibition” value turned out to be 0%. With `N#CC1CCC(Nc2cnn(-c3ccncc3)c2)CC1` (centres undefined), the “% Inhibition” value was found to be 11%. `COCCN1CC2(CCCC2)N(C(=O)COc2ccc(F)cc2)CC1=O`: the “% Inhibition” value is listed as -9%. In the case of `Cc1ccc(N(Cc2cccs2)C(=O)c2cccs2)cc1Cl` it was 31%; in that of `O=C(c1ccccc1)c1c[nH]c2c(F)cc(F)cc2c1=O`, 2%; in that of `Cc1cccc(C)c1NC(=O)C1(N(Cc2ccco2)C(=O)c2ccc(Cl)cc2)CCC(C)CC1` (centres undefined), 9%.

Regarding `C[C@H](NC(=O)c1ccsc1)c1cccs1`, the “% Inhibition” value is reported as 2%. Take `Cc1ccc(C)c(C(=O)CN2Cc3ccccc3C2=N)c1`: the “% Inhibition” value was 12%. For the compound `Cc1c(C(C)C)c(=O)n(-c2ccc(S(=O)(=O)N3CCN(c4nc5ccccc5nc4-c4ccccc4)CC3)cc2)n1C`, the “% Inhibition” value is recorded as -10%. `Cc1cc(C)n(C(=O)CNC(=O)c2cccs2)n1`: the “% Inhibition” value is -25%.

Take `Cc1ccccc1Cn1cnc2c1c(=O)n(C1CCCCC1)c(=O)n2-c1ccccc1Cl`: the “% Inhibition” value amounted to 82%.

`c1ccc(N2CCN(c3nc(N4CCCC4)c4nccnc4n3)CC2)cc1`: the “% Inhibition” value was -1%. Take `COc1c[nH]c(C(=O)NC2CCN(Cc3ccccc3)CC2)cc1=O`: the “% Inhibition” value came out at 1%. In the case of `O=C(CCC(=O)c1ccccc1)NC1CCC(O)CC1` (centres undefined) it was 10%. As to `CCOc1c(CNCCN(C)C)cc(Br)cc1OC`, the “% Inhibition” value turned out to be 3%. As for `Cc1onc(-c2ccccc2)c1C(=O)c1c[nH]c(C(=O)NCc2ccncc2)c1`, the “% Inhibition” value turned out to be 11%.

As to `Cc1cc(N2C(=O)CCS2(=O)=O)cc(C)c1S(=O)(=O)NCc1ccccn1`, the “% Inhibition” value was 9%. Regarding `CCOC(=O)c1ccc(N2CCN(Cc3ccccc3)CC2)c(NC(=O)COc2ccc(Cl)cc2C)c1`, the “% Inhibition” value is on record as -9%. In the case of `NCc1cccc(C(=O)N2CCc3cc4ccc3[C@@H]2c2cccc(c2)OCCCNC(=O)c2cc(ccc2O)O4)c1` it was 98%; in that of `CNC(=O)COc1c(Cl)ccc(Cl)c1Br`, 8%; in that of `O=C(NC1(C(F)(F)F)Oc2cc(Cl)c(Cl)cc2O1)N1CCCC1`, -6%.

As to `Cc1nc[nH]c1CN1CCN(C(=O)CCC(C)C)[C@H]2CS(=O)(=O)C[C@H]21`, the “% Inhibition” value amounted to 4%. In the case of `C[C@]1(CCc2ccc(O)cc2)Nc2ccccc2-c2nc(=O)c(-c3ccc(F)cc3)nn21`, the “% Inhibition” value is -12%. As for `Cc1ccc(C)c(C(=O)Cn2nc3ccc(-c4ccc(Cl)cc4)nn3c2=O)c1`, the “% Inhibition” value is listed as 6%.

Take `Cc1oc(C(=O)N2CC3(CCCC3)c3ccccc32)cc1S(=O)(=O)N(C)C`: the “% Inhibition” value is -1%.

Take `Cn1c(-c2ccc(-c3ccccc3)cc2)cn2cc(-c3cccc(Br)c3)nc12`: the “% Inhibition” value worked out at 10%. With `Cc1ccnc2nc(C(=O)N(C)c3ccc(Cl)cn3)nn12`, the “% Inhibition” value stood at 13%.

Consider `CCN(C[C@H]1CCCO1)C(=O)c1cnc(Cc2ccccc2)s1`, for which the “% Inhibition” value is given as -15%. In the case of `O=C(Nc1ccccc1CN1CCc2ccccc21)NC1CCC(O)CC1` (centres undefined) it was -8%.

`CCN(CCN(C)C)C(=O)c1cccc(-c2ccc3nccc(N)c3c2)c1`: the “% Inhibition” value was 96%. For the compound `CC(C)c1cnc(NCCCC[C@H]2CCCO2)nc1`, the “% Inhibition” value is listed as -14%. On to `CCn1cnc2c(N3CCC[C@H](c4ccncc4)C3)ncnc21`, for which the “% Inhibition” value stood at 77%. In the case of `CCOC(=O)C1CCN(C(=O)c2nc(-c3ccc(N4CCCC4)nc3)no2)CC1` it was 12%. Turning to `COc1ccc(-c2noc(Cn3c(=O)c4ccccc4n(CC(=O)NCCc4ccc(OC)c(OC)c4)c3=O)n2)cc1`, the “% Inhibition” value came to 6%.

`COC1C(C(N)=O)OC2OC3(CCCCC3)OC21` (centres undefined): the “% Inhibition” value is given as -4%. Take `COc1cc(C(=O)Nc2ccc3sc(NC(=O)c4cc(OC)c(OC)c(OC)c4)nc3n2)cc(OC)c1OC`: the “% Inhibition” value is recorded as 67%. Turning to `O=C(Cn1c(=O)n(Cc2nc(-c3ccccc3)no2)c(=O)c2ccccc21)Nc1cccc(Cl)c1`, the “% Inhibition” value is reported as 5%. Turning to `CC(CNc1ccccn1)N1CCOCC1C` (centres undefined), the “% Inhibition” value turned out to be 0%. In the case of `O=C(NCc1ncc[nH]1)[C@@H]1COc2ccc(Br)cc21`, the “% Inhibition” value worked out at 11%.

`COc1ccc(CNC(=O)N2C[C@H](C)OC3(CCCCC3)C2)cc1OC(F)F`: the “% Inhibition” value is given as -8%. In the case of `CC(C(=O)N1N=CCC1(O)C(F)(F)F)n1nc(C(F)(F)F)cc1C1CC1` (centres undefined) it was 7%; in that of `O=S(=O)(c1ccccc1F)C1CNC1`, -18%. `O=C(Nc1cccc(Oc2c(F)c(F)c(-c3c(F)c(F)c(Oc4cccc(NC(=O)c5ccccc5)c4)c(F)c3F)c(F)c2F)c1)c1ccccc1`: the “% Inhibition” value was 15%. In the case of `CCn1ccc(C(=O)NC2CCN(c3nnc4ccc(Cl)cn34)CC2)n1`, the “% Inhibition” value is on record as 1%.

With `Cc1cc(NS(=O)(=O)c2cccs2)n(-c2ccncc2)n1`, the “% Inhibition” value worked out at 9%. In the case of `CCC(=O)Nc1nc(-c2ccccc2)nc2c1C(=O)CCC2` it was 11%; in that of `CC(C)(C)c1ccc(C(=O)N[C@H]2CCCC[C@@H]2NC(=O)c2ccc(C(C)(C)C)cc2)cc1`, 2%; in that of `CCN1CCN(CC(=O)N2N=C(c3ccc(C)c(C)c3)C[C@H]2c2cccn2C)CC1`, 2%. With `Cc1cc(Oc2ncccn2)ccc1NC(=O)N1CCOCC1`, the “% Inhibition” value came to 13%. Under `Oc1ccc2cc(CN3CCC[C@H](CN4CCCC4)C3)ccc2c1` stands 97%; under `O=C(Nc1cccc2cccnc12)c1cncc(Br)c1`, -8%.

For the compound `Cc1ccc(NC(=O)CN2N=C(C(=O)Nc3ccc(F)cc3)CCC2=O)cc1F`, the “% Inhibition” value is -1%.

For `Brc1cccc2c1OCC[C@@H]2Nc1ncnc2nc[nH]c12`, the “% Inhibition” value is 4%. Turning to `COc1ccc(-c2nn(CN(C)OC)c(=S)o2)cc1OC`, the “% Inhibition” value is -17%. As for `CN1c2cc(C(=O)N3CCc4ccccc4C3)ccc2C(=O)N2CCCC[C@H]21`, the “% Inhibition” value is -1%. `COc1ccccc1C(=O)N1CCC([C@H](NC(=O)c2ccc3c(c2)OCO3)C(=O)NC(C)C)CC1`: the “% Inhibition” value was found to be 10%. In the case of `CN(c1ccc(Br)cc1)S(=O)(=O)c1ccc2c(c1)CCN2C(=O)C1CCC1`, the “% Inhibition” value came to 10%. Consider `CNC(=O)Cc1noc(-c2sccc2C#N)n1`, for which the “% Inhibition” value is -8%.

On to `Cc1ncsc1CNS(=O)(=O)c1ccc(OCC(F)F)cc1`, for which the “% Inhibition” value is recorded as 7%.

For orientation: % Inhibition means the change of the read-out against control, counted positive when it falls.
